Source: the supplement of paper PMC10126150
Values marked as one replicate rest on one cluster of the flow cell; about a third of the high ones do not repeat.

Each sequence was assayed on ATP (assay: switch fluorescence ratio, 500 uM ATP over buffer (Cy3 cluster intensity, sum of 5 cycles each) (fold (ratio)); higher = stronger signal-on switching upon ATP binding; sequences stand for … in TCGTCGGCAGCGTCAGATGTGTATAAGAGACAGTTTTTTTTTTTTTTTTTTTTTTTTT…TC). Details: aptamer strand: ATP DNA aptamer (quencher-CACCTGGGGGAGTATTGCGGAGGAAGG + anchor), 100 nM annealed; ATP concentration: 500 uM; one replicate.
Procedure, shortened: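 Cy3-labelled switching-strand clusters on a modified Illumina MiSeq flow-cell were annealed to 100 nM quencher-labelled ATP aptamer, imaged in selection buffer, then imaged after 15 min with 500 uM ATP at 22 °C. Five buffer/ATP cycles ran, with NaOH stripping and re-annealing between them. The fluorescence ratio is summed target-cycle over summed buffer-cycle Cy3 intensity per cluster, averaged per switch-domain sequence. Clusters outside 100-1000 RFU were excluded.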
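Further: ATP exposure 15 min at 22 °C before imaging.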

Row | Sequence | switch fluorescence ratio
1 | AACATATCAC | 1.05
2 | TAAGTTAGGC | 0.992
3 | TTAGGCGAA | 1.02
4 | TCAGACGGC | 0.975
5 | CACGTCAGTT | 1.07
6 | GTGGGAGCAA | 1.03
7 | TGTTATAGGC | 0.982
8 | CAAGTAATGA | 1.02
9 | CAGTTTACAA | 1.03
10 | ACTATAGTAC | 1.04
11 | CGGAAGGGTC | 0.972
12 | GGGGAACGTC | 0.99
13 | ATCATCAACT | 0.971
14 | GCGAGCGCCC | 0.993
15 | GTCGATCAAC | 1.04
16 | CGATGGGTCA | 0.94
17 | TTTCCATTAC | 1.14
18 | CGCCGCGGCA | 0.968
19 | TGTTTGAGA | 0.983
20 | ATCTCGCGA | 1.19
21 | TCGCGAGCCT | 1.1
22 | GCAGATGGAA | 0.997
23 | GTCTGCAGGG | 1
24 | CCAGCCCTTA | 0.98
25 | GTTGAGCGAT | 1.05
26 | GCAACCGCTT | 1.09

Row | Sequence | switch fluorescence ratio
27 | TGTGAGCCAG | 0.968
28 | CAACTGCCTA | 1.01
29 | TAGCTCAGTA | 1.01
30 | CTGAGATAT | 1
31 | CGCATTAGAT | 1.08
32 | ATGACATTTA | 1.05
33 | CTCAAATAGG | 1.01
34 | GGGCTGGCGC | 1.04
35 | CATGCATGCG | 1.06
36 | CTGCCACCAA | 1.16
37 | TCGGGAGCGA | 1.26
38 | ATATGTAATA | 0.967
39 | ACTCTTTGGG | 1.03
40 | TTGACCAATT | 1.03
41 | CTGGTTTCGT | 0.961
42 | TTCGGCCTTG | 1.02
43 | CAACACATG | 1.02
44 | ATAACACTGT | 1.07
45 | CTGGATCCT | 1.02
46 | AGCGGCGATG | 0.945
47 | TCAACGTTAC | 1.86
48 | TCTAAGACGA | 1
49 | TGCCTGAATC | 1.05
50 | CGTATTTTAT | 0.994
51 | ATACTTTTAG | 1.01
52 | CGTGTCGTAC | 1.02

Row | Sequence | switch fluorescence ratio
53 | CGATGAGCAC | 1.22
54 | AAACGTAATC | 1.49
55 | AATCGCTGAG | 1.04
56 | GGAGGGCCA | 1.04
57 | GTATTGCCGA | 0.95
58 | ACCAAGTCAG | 1.07
59 | ACATAGTGAC | 1.04
60 | GGAACATGGA | 1
61 | ATACTCACTA | 1.17
62 | TCCATTTGGT | 0.984
63 | CCTTAAGGTA | 0.997
64 | ATTGACGAAA | 1.07
65 | CATTATGTA | 0.994
66 | GATGGCTGTT | 1.02
67 | TCCATTTACA | 1.03
68 | CAGAACCACT | 1.03
69 | TCTCGCTTAG | 3.4
70 | TTTTTGCGA | 1.01
71 | GCGAATCTGC | 1.03
72 | TGGGTCGAC | 1.03
73 | ACACCATGTT | 1.01
74 | GAGTATGAGT | 0.998
75 | TCACCGGGTC | 1.09
76 | GTTTGGACTG | 0.97
77 | AATATAGTTA | 0.997
78 | TTTACATATT | 1.02

Row | Sequence | switch fluorescence ratio
79 | GGGTGCTACT | 0.98
80 | CTGATGGACG | 1.02
81 | TTAGCGAATG | 1.02
82 | CAAATACATC | 0.989
83 | AGTTGATTAG | 1.01
84 | TACGCTATGC | 4.35
85 | AGAAAAGGTC | 1.09
86 | GGGTCGCAGT | 1.04
87 | AAGGAGCGGT | 0.966
88 | GCGTGCTGCC | 1.01
89 | CTCAAAGAGA | 0.967
90 | GGGAGCTGGT | 1.41
91 | CATACAAGAA | 0.986
92 | ATATCTCGGT | 1.02
93 | GTTTTGCGAC | 1
94 | AAAAGTATGT | 0.993
95 | TGAGTTAATA | 1.01
96 | CACCCTTAA | 1.04
97 | AGTTGAAGCC | 1.03
98 | AGCCGAAGAA | 1.01
99 | ATACGCTTTC | 1.52
100 | ACAGCAGTTT | 0.983
101 | TTGTCGTTTC | 1.05
102 | CCATGTGGTC | 0.935
103 | GTAACGGTTT | 1
104 | TATAAGAACA | 1.01

Row | Sequence | switch fluorescence ratio
105 | GATCCTTTTG | 0.937
106 | TATCTGATTT | 1.02
107 | TCGTGACGCA | 1.22
108 | TGATGTTAG | 0.94
109 | CTGGGATCGT | 0.964
110 | TGTCTAAGAT | 0.962
111 | AGGCGCCTTG | 1
112 | TGGTCCCAGA | 1.01
113 | GTGATAGCCG | 0.983
114 | TGGTCGTGGC | 1.03
115 | TCACCCTGGG | 1.05
116 | TAATCGGGAC | 0.993
117 | GGCGGGAGAA | 0.984
118 | GTAAATCGGC | 1.01
119 | ATAAGTAGGG | 0.959
120 | TTCAGGCTAA | 0.974
121 | ACCTCTTATG | 1.04
122 | ATGAACCGCG | 1.18
123 | CGAATACTCG | 1.48
124 | ATTTGATTAC | 1
125 | CAGGCGGTAT | 1.01
126 | GACATGACC | 1.16
127 | TCGGATGGGG | 0.954
128 | TTTCTCTTTG | 0.976
129 | ATCCCGGCGT | 1
130 | ACTGGTGAGT | 0.989

Row | Sequence | switch fluorescence ratio
131 | TGCTGAGTTA | 0.973
132 | AGGACCTCTT | 0.95
133 | ATTTGGTTTA | 1.04
134 | CAGGCTTGCT | 1
135 | TTGACTAG | 0.93
136 | TTGTAAGGTG | 1.22
137 | CCTGAGCTTG | 0.984
138 | GGCTGTGTGG | 1.01
139 | TAAAGGGACG | 1.09
140 | ATCGCGCAGT | 1.09
141 | TTATATTATA | 0.969
142 | TGAACACTCT | 1.05
143 | TATCCTAGAG | 0.988
144 | GCGGAGGAAA | 1.05
145 | TGTTTGCATG | 1.01
146 | ACGGATCCAT | 0.991
147 | CCTTTTTCGG | 1.05
148 | GGGACAAAT | 1
149 | ATCGACGGCG | 1.05
150 | AAAACTGGGT | 1.06
151 | GATGACGTGT | 1
152 | CATATAGTCA | 1.01
153 | TAATTTAACT | 1.1
154 | TCAAAGAGAT | 1.03
155 | CGTAGTATCG | 0.95
156 | CCGGGTACGT | 1.06

Row | Sequence | switch fluorescence ratio
157 | TTCTTAAGTC | 1.05
158 | GAGGAAGTGC | 0.97
159 | TTAGGATCGG | 0.995
160 | AGGCAGGGGT | 0.966
161 | AAGCGAGGGA | 1.06
162 | AATTTACACG | 1.1
163 | AGGCGACAGC | 0.955
164 | GCATATAGGC | 0.976
165 | CGTTAAATT | 1.02
166 | AGTGCTTATC | 0.981
167 | CCTTATTGCC | 1.01
168 | GTATTGCATC | 1.01
169 | CGTTACTTAA | 1.01
170 | CATTTGCATT | 1.16
171 | ATTTGTATCA | 0.992
172 | TCACAGCCAA | 2.36
173 | CGCTACTCAG | 2.18
174 | GGTACTTTGC | 0.991
175 | GTTTTCAGTG | 1.02
176 | CTACATTGT | 0.963
177 | GGCCGAGCGC | 0.977
178 | AAGCAACTAG | 1.62
179 | TATATGTCAC | 1.05
180 | CATAGAGGGA | 1.01
181 | TCAGGTGGTT | 1.15
182 | CGTTTTTTCC | 0.995

Row | Sequence | switch fluorescence ratio
183 | CATAGATG | 0.985
184 | TATCACTTGA | 1.04
185 | TAAGAAGTTC | 0.974
186 | GTGATCGTGC | 0.969
187 | GCCTCATTCG | 0.993
188 | TCCTTTTTC | 1.05
189 | CCGAAAAATC | 2.09
190 | CCAGCGCGCC | 1.04
191 | TCTCGTGTGA | 1.03
192 | TTACGGGTCT | 1.01
193 | TAGGCGAGGT | 1
194 | CAGTTGCCGC | 0.971
195 | AATTGTCGGA | 0.99
196 | TCCATCGTAC | 1.74
197 | TTGATACAGC | 1.08
198 | CGACCGAAGT | 1.1
199 | GATTGTGTGC | 0.974
200 | ATAATATCAA | 1.04
201 | TAAGTGCAA | 1.22
